# Source: ChEMBL document CHEMBL5606458, “ASAP - ZIKV NS2B-NS3 protease fluorescence single point” (2024)
# Screen size: about 2,700 compounds; about 160 (5.9%) showed an effect of 50% or more. Some of the results follow.
# Target: Nonstructural protein 3 (Zika virus) (UniProt A0A024AXB9)
# [1] = PRVABC59, Concentration 15.0 uM, Number of replicates 1.0
# [2] = PRVABC59, Concentration 50.0 uM, Number of replicates 1.0
# Chain of UniProt A0A024AXB9 (A0A024AXB9 as listed by the source): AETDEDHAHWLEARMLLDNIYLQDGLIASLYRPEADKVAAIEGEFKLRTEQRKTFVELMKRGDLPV
smiles,measurement,setting,value
Cc1nccc(Cn2cc(C3CCNCC3)c(C)n2)n1,inhibition,"PRVABC59, Concentration 49.5 uM, Number of replicates 2.0, Standard deviation 1.726112379646082 %",-6.27%
same,inhibition,"PRVABC59, Concentration 99.01 uM, Number of replicates 2.0, Standard deviation 0.17396432038920195 %",-6.67%
same,inhibition,"PRVABC59, Concentration 198.0 uM, Number of replicates 2.0, Standard deviation 5.707961096528205 %",-2.77%
O=C(c1cc(Cl)ccc1NS(=O)(=O)c1ccc(Oc2ccccc2Cl)cc1)N1C[C@@H]2C[C@H]1CN2Cc1ccccc1,inhibition,[1],7.15%
O=C(Cc1cnc[nH]1)NC1CCN(C(=O)c2cccc3[nH]ncc23)CC1,inhibition,"PRVABC59, Concentration 49.5 uM, Number of replicates 2.0, Standard deviation 0.3838964241228128 %",-1.78%
same,inhibition,"PRVABC59, Concentration 99.01 uM, Number of replicates 2.0, Standard deviation 0.6526237608507574 %",-1.17%
same,inhibition,"PRVABC59, Concentration 198.0 uM, Number of replicates 2.0, Standard deviation 1.0930943422716526 %",-1.05%
O=C(NCCc1ccc(OC(F)(F)F)cc1)c1cc(Cl)ccc1NS(=O)(=O)c1ccc(Oc2ccccc2Cl)cc1,inhibition,[1],27.7%
O=C(Nc1cccc(N2CCOCC2)c1)c1cc(Cl)ccc1NS(=O)(=O)c1ccc(Oc2ccccc2Cl)cc1,inhibition,[1],66.3%
O=C(N[C@@H]1[C@@H](O)[C@H](O)[C@@H](CO)O[C@H]1O)c1cc(Cl)ccc1NS(=O)(=O)c1ccc(Oc2ccccc2Cl)cc1,inhibition,[1],4.78%
CNC(=O)C1(C)CCN(C(=O)c2cc(Cl)ccc2NS(=O)(=O)c2ccc(Oc3ccccc3Cl)cc2)CC1,inhibition,[1],-2.63%
COc1cc(COc2ccnc3ccnn23)nc(N2CCNCC2)n1,inhibition,"PRVABC59, Concentration 49.5 uM, Number of replicates 2.0, Standard deviation 0.8016003105759115 %",-1.08%
same,inhibition,"PRVABC59, Concentration 99.01 uM, Number of replicates 2.0, Standard deviation 0.5716839625194965 %",-0.798%
same,inhibition,"PRVABC59, Concentration 198.0 uM, Number of replicates 2.0, Standard deviation 1.3111446876717348 %",1.2%
C[C@H](NC(=O)c1cc(Cl)ccc1NS(=O)(=O)c1ccc(Oc2ccccc2Cl)cc1)c1ccc(Br)cc1,inhibition,[1],37.2%
CN1CCN(c2ccc(CNC(=O)c3cc(Cl)ccc3NS(=O)(=O)c3ccc(Oc4ccccc4Cl)cc3)cc2)CC1,inhibition,[1],12%
O=Cc1ccc(N2CCC(C(=O)N3CCC[C@H](c4nnc5ccccn45)C3)CC2)cc1,inhibition,[2],26.6%
O=C(C(=O)N1CCOCC1)c1c[nH]c2ccccc12,inhibition,"PRVABC59, Concentration 49.5 uM, Number of replicates 2.0, Standard deviation 0.17998600922334743 %",-0.983%
same,inhibition,"PRVABC59, Concentration 99.01 uM, Number of replicates 2.0, Standard deviation 1.1884369831445414 %",0.292%
same,inhibition,"PRVABC59, Concentration 198.0 uM, Number of replicates 2.0, Standard deviation 1.4742969294984674 %",3.1%
Cn1cc(NC(=O)c2ccccc2-c2ccc(C(=O)O)nc2)cn1,inhibition,"PRVABC59, Concentration 49.5 uM, Number of replicates 2.0, Standard deviation 2.4498358087391408 %",-1.15%
same,inhibition,"PRVABC59, Concentration 99.01 uM, Number of replicates 2.0, Standard deviation 1.6656005687321722 %",-0.876%
same,inhibition,"PRVABC59, Concentration 198.0 uM, Number of replicates 2.0, Standard deviation 2.3203289956835937 %",3.27%
Cc1n[nH]cc1-c1ccccc1C(=O)Nc1cnn(C)c1,inhibition,"PRVABC59, Concentration 49.5 uM, Number of replicates 2.0, Standard deviation 3.191399466702898 %",-2.16%
same,inhibition,"PRVABC59, Concentration 99.01 uM, Number of replicates 2.0, Standard deviation 2.5035391492559715 %",-1.69%
same,inhibition,"PRVABC59, Concentration 198.0 uM, Number of replicates 2.0, Standard deviation 2.931238418982876 %",-1.46%
O=Cc1ccc(N2CCC(C(=O)N3CCC4(CC3)CC(=O)c3ccccc3O4)CC2)cc1,inhibition,[2],9.73%
Cc1cnc2ccccc2c1NC(=O)c1cccn(CC(C)C)c1=O,inhibition,"PRVABC59, Concentration 49.5 uM, Number of replicates 2.0, Standard deviation 0.6001524095943922 %",3.52%
same,inhibition,"PRVABC59, Concentration 99.01 uM, Number of replicates 2.0, Standard deviation 0.6796425459976966 %",8.92%
same,inhibition,"PRVABC59, Concentration 198.0 uM, Number of replicates 2.0, Standard deviation 1.709043243173958 %",17.9%
O=Cc1ccc(N2CCC(C(=O)Nc3nnc(Cl)cc3Br)CC2)cc1,inhibition,[2],29%
COc1ccc(CN(C)C(=O)c2cc(Cl)ccc2NS(=O)(=O)c2ccc(Oc3ccccc3Cl)cc2)cc1O,inhibition,[1],18.1%
O=Cc1ccc(N2CCC(C(=O)Nc3ccc(O)cc3[N+](=O)[O-])CC2)cc1,inhibition,[2],38.4%
O=C(O)C1CCN(Cc2c[nH]c3ccccc23)CC1,inhibition,"PRVABC59, Concentration 49.5 uM, Number of replicates 2.0, Standard deviation 0.9943996782429954 %",-2.26%
same,inhibition,"PRVABC59, Concentration 99.01 uM, Number of replicates 2.0, Standard deviation 1.4833948957319987 %",-1.01%
same,inhibition,"PRVABC59, Concentration 198.0 uM, Number of replicates 2.0, Standard deviation 4.1958416694697585 %",-1.44%
C[C@H]1CN(C(=O)OC(C)(C)C)CCN1C(=O)c1cc(Cl)ccc1NS(=O)(=O)c1ccc(Oc2ccccc2Cl)cc1,inhibition,[1],13.5%
O=Cc1ccc(N2CCC(C(=O)NCCOCc3ccccc3)CC2)cc1,inhibition,[2],21.1%
O=C(NC1CN(C(c2ccccc2)c2ccccc2)C1)c1cc(Cl)ccc1NS(=O)(=O)c1ccc(Oc2ccccc2Cl)cc1,inhibition,[1],0.946%
O=C(Nc1c(Br)cncc1[N+](=O)[O-])c1cc(Cl)ccc1NS(=O)(=O)c1ccc(Oc2ccccc2Cl)cc1,inhibition,[1],25.3%
CCOc1ccc(CNC(=O)C2CCN(c3ccc(C=O)cc3)CC2)cc1,inhibition,"PRVABC59, Concentration 10.0 uM, Number of replicates 1.0",4.26%
N#Cc1ccc(C[C@H](NC(=O)c2ccccc2)C(=O)N2CCC[C@@H](CNC(=N)N)C2)cc1,inhibition,"PRVABC59, Concentration 49.5 uM, Number of replicates 2.0, Standard deviation 1.2619096875454 %",6.42%
same,inhibition,"PRVABC59, Concentration 99.01 uM, Number of replicates 2.0, Standard deviation 0.8863178784531737 %",9.58%
same,inhibition,"PRVABC59, Concentration 198.0 uM, Number of replicates 2.0, Standard deviation 0.09141347984703638 %",16.2%
COCCn1cccc(C(=O)Nc2ccncc2C)c1=O,inhibition,"PRVABC59, Concentration 49.5 uM, Number of replicates 2.0, Standard deviation 3.2021605317736013 %",-1.95%
same,inhibition,"PRVABC59, Concentration 99.01 uM, Number of replicates 2.0, Standard deviation 3.047865028692948 %",-0.604%
same,inhibition,"PRVABC59, Concentration 198.0 uM, Number of replicates 2.0, Standard deviation 2.253137351822617 %",-2.31%
COc1ccc(C[C@H]2c3cc(OC)c(OC)cc3CCN2C(=O)c2cc(Cl)ccc2NS(=O)(=O)c2ccc(Oc3ccccc3Cl)cc2)cc1OC,inhibition,[1],26.2%
O=Cc1ccc(N2CCC(C(=O)Nc3ccncc3Br)CC2)cc1,inhibition,[2],20.5%
O=Cc1ccc(N2CCC(C(=O)N3CCCC[C@@H]3Cc3ccccc3)CC2)cc1,inhibition,[2],27.1%
O=Cc1ccc(N2CCC(C(=O)NCCCN3CCS(=O)(=O)CC3)CC2)cc1,inhibition,[2],26.6%
CC(C)(CO)NC(=O)c1cc(Cl)cc(NC(=O)CCNc2cc(Cl)cc(Cl)c2)c1,inhibition,"PRVABC59, Concentration 49.5 uM, Number of replicates 2.0, Standard deviation 3.1830122701910106 %",8.57%
same,inhibition,"PRVABC59, Concentration 99.01 uM, Number of replicates 2.0, Standard deviation 2.527205284312771 %",8.93%
same,inhibition,"PRVABC59, Concentration 198.0 uM, Number of replicates 2.0, Standard deviation 2.537420668867447 %",6%
COc1cc(Cl)c(C)cc1NC(=O)C1CCN(c2ccc(C=O)cc2)CC1,inhibition,[2],25.3%
O=C(c1cc(Cl)ccc1NS(=O)(=O)c1ccc(Oc2ccccc2Cl)cc1)N1CCO[C@@H](c2ccccc2)C1,inhibition,[1],14.5%
O=Cc1ccc(N2CCC(C(=O)NC[C@H](c3cccnc3)N3CCOCC3)CC2)cc1,inhibition,[2],22.7%
CNC(=O)c1cc(Cl)ccc1NC(=O)CCNC(=O)c1cccc(Cl)c1,inhibition,"PRVABC59, Concentration 49.5 uM, Number of replicates 2.0, Standard deviation 1.8121513776647062 %",-0.55%
same,inhibition,"PRVABC59, Concentration 99.01 uM, Number of replicates 2.0, Standard deviation 2.907205611612388 %",1.16%
same,inhibition,"PRVABC59, Concentration 198.0 uM, Number of replicates 2.0, Standard deviation 3.029786390905291 %",4.5%
O=Cc1ccc(N2CCC(C(=O)N3CCN(C(=O)c4ccccc4Cl)CC3)CC2)cc1,inhibition,[2],24.6%
CN(C)CCN(Cc1ccccc1)C(=O)c1cc(Cl)ccc1NS(=O)(=O)c1ccc(Oc2ccccc2Cl)cc1,inhibition,[1],15.1%
O=Cc1ccc(N2CCC(C(=O)Nc3ccc(C(F)(F)F)cc3)CC2)cc1,inhibition,[2],24.6%
O=C(c1cc(Cl)ccc1NS(=O)(=O)c1ccc(Oc2ccccc2Cl)cc1)N1CCN(C/C=C/c2ccccc2)CC1,inhibition,[1],11.5%
O=C(Nc1ccc([N+](=O)[O-])c2ccccc12)c1cc(Cl)ccc1NS(=O)(=O)c1ccc(Oc2ccccc2Cl)cc1,inhibition,[1],22.7%
C#CCN(Cc1ccc(C)cc1)C(=O)c1cc(Cl)ccc1NS(=O)(=O)c1ccc(Oc2ccccc2Cl)cc1,inhibition,[1],26%
